{"source": "PubChem BioAssay AID488969", "about": "(Vanderbilt High Throughput Screening Facility, 2010)", "note": "Several values for one entry are separate records, joined by “and”; a condition that tells them apart may be missing. Equal entries are not always repeated. In all, about 110,000 compounds were measured (“z-score”: median about -0.1, highest 2% from about 2 on). This is one part of the list. Activity calls are given as the source filed them.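 Rule for the calls: active = z-score in the third read window above 3 or below -3; inactive = the rest.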", "data": [{"biological_target": "Metabotropic glutamate receptor 8 (Rattus norvegicus) (UniProt P70579)", "sequence (P70579 whole entry, looked up)": "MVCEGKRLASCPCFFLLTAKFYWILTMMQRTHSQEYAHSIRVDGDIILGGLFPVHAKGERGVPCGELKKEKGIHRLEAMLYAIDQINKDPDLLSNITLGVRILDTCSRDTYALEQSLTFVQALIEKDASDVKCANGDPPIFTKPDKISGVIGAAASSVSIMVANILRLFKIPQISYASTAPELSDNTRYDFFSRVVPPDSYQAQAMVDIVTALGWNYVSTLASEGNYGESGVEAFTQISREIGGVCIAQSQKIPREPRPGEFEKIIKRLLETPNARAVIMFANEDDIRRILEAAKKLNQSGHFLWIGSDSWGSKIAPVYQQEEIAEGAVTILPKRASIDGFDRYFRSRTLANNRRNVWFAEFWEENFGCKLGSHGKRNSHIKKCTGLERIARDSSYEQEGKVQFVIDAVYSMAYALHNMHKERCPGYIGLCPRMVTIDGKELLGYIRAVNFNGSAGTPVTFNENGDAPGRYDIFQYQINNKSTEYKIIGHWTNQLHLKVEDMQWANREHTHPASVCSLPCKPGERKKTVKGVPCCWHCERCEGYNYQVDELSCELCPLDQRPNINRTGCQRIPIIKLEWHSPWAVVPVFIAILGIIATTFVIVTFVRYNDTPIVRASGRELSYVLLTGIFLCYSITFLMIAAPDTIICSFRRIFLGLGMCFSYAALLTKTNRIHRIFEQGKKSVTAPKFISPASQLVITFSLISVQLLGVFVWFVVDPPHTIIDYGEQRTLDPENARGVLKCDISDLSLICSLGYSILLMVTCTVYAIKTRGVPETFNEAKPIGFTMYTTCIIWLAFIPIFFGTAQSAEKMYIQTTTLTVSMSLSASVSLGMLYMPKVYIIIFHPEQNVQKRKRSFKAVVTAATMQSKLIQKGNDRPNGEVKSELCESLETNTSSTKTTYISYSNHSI", "test": "rat mGluR8 modulators via GIRK flux, primary screen, cell-based, thallium flux, HTS (AID 488969)", "details": "HEK293 rat mGluR8, GIRK (G protein-gated inwardly rectifying potassium channel) thallium flux, FluoZin2; at 10 µM; stronger effect = higher value; submaximal glutamate (EC20) added with thallium", "values": [{"compound": "O=C(CSc1nnnn1Cc1ccccc1)Nc1ccc2c(c1)OCO2", "z-score": -0.903}, {"compound": "Cc1ccc(C(=O)O)cc1NC(=S)NC(=O)C(c1ccccc1)c1ccccc1", "z-score": -0.483}, {"compound": "O=C(CSc1nc2ncc(Br)cc2[nH]1)c1ccc([N+](=O)[O-])cc1", "z-score": -1.08}, {"compound": "CCc1cc(C)c(O)c(CC)n1", "z-score": -0.0228}, {"compound": "O=S1(=O)CCN2C(=N1)SC1=C2CCN(Cc2ccccc2)C1", "z-score": 1.34}, {"compound": "Cc1ccc(S(=O)(=O)N2CCOCC2)cc1NC(=O)COC(=O)CNC(=O)c1ccccc1", "z-score": -0.201}, {"compound": "COC(=O)c1c(C)[nH]c(O)c1C=Nc1ccc(C(C)C)cc1", "z-score": -0.277}, {"compound": "C=C(C)C1CC=C(C)/C(=N/NC(=S)Nc2ccccc2)C1", "note": "(stereo unspecified)", "z-score": 2.35}, {"compound": "COc1ccc(S(=O)(=O)N2CCN(S(=O)(=O)c3ccc(C(F)(F)F)cc3)CC2)cc1C", "z-score": -0.768}, {"compound": "OC(COc1ccc2ccccc2c1Br)Cn1cnc(-c2ccccc2)c1", "note": "(stereo unspecified)", "z-score": 0.432}, {"compound": "Clc1ccc(OCc2nc(-c3ccccn3)n[nH]2)cc1", "z-score": 1.03}, {"compound": "O=S(=O)(/N=C/N1CCOCC1)c1ccc(Cl)cc1", "z-score": -0.206}, {"compound": "O=C(C1CCCO1)N1CCN(S(=O)(=O)c2ccccc2)CC1", "note": "(stereo unspecified)", "z-score": -0.34}, {"compound": "O=C(Cc1cc(=O)[nH][nH]1)N/N=C/C(Cl)=C/c1ccccc1", "z-score": "-0.191 and -0.199"}, {"compound": "CCOC(=O)c1sc(-c2ccccc2)cc1N", "z-score": -0.0564}, {"compound": "O=C(NCCN1CCOCC1)c1ccc2c(c1)N(Cc1ccccc1F)C(=O)CS2", "z-score": -1.38}, {"compound": "CCC(C)Oc1nc2ccccc2nc1NS(=O)(=O)c1ccccc1", "note": "(stereo unspecified)", "z-score": -0.098}, {"compound": "O=C(Oc1ccc(-c2nc(-c3ccccn3)no2)cc1)c1ccccc1", "z-score": 0.599}, {"compound": "CCc1ccc(-c2cn3nc(C)c(C)nc3n2)cc1", "z-score": 0.536}, {"compound": "CCCCN=C1N/C(=C\\c2ccco2)C(=O)N1c1ccccc1", "z-score": -0.339}, {"compound": "CC(C)OC(=O)CSc1ncnc2c1cnn2Cc1ccccc1", "z-score": 0.106}, {"compound": "CCOC(=O)c1ccc(NC(=O)CS(=O)(=O)c2cn(CC)c3ccccc23)cc1", "z-score": -0.296}, {"compound": "CC1(C)Cc2nc3sc4c(=O)n(CC(N)=O)cnc4c3cc2CO1", "z-score": -0.148}, {"compound": "Fc1ccc(CNC(=S)NC2CCCC2)cc1", "z-score": 0.00441}, {"compound": "Cc1nn(CC(=O)Nc2nc3ccccc3s2)c(C)c1[N+](=O)[O-]", "z-score": 0.602}, {"compound": "CCc1nnc(NC(=O)CN2C(=O)CCC2=O)s1", "z-score": 0.92}, {"compound": "CCCOC(=O)c1ccc(NC(=O)c2ccc(Br)o2)cc1", "z-score": -0.692}, {"compound": "CC(=O)N1CCc2cc(S(=O)(=O)N3c4ccccc4CC3C)ccc21", "note": "(stereo unspecified)", "z-score": -0.113}, {"compound": "CC(C)C(=O)NC(c1cccs1)c1cc([N+](=O)[O-])c2cccnc2c1O", "note": "(stereo unspecified)", "z-score": 0.262}, {"compound": "Cc1[nH]c2c(C)cccc2c1CCNC(=O)C1CCCCC1C(=O)OCC(F)(F)F", "note": "(stereo unspecified)", "z-score": -0.324}, {"compound": "O=C1CCCc2ccccc2N1Cc1ccc(Cl)cc1", "z-score": -0.414}, {"compound": "CCOc1cccc(C(=O)Nc2cccc(-c3nc4ncccc4o3)c2C)c1", "z-score": -0.073}, {"compound": "CCOC(=O)CC1=C(C(=O)OCC)C(c2cc(OC)c(OC)cc2OC)C(C#N)=C(N)O1", "note": "(stereo unspecified)", "z-score": 0.17}, {"compound": "O=C(CSc1ccccc1)NCCCN1CCOCC1", "z-score": 0.141}, {"compound": "O=C(Nc1ccccc1)c1ccccc1NS(=O)(=O)c1ccc(Cl)s1", "z-score": "active: -3.39"}, {"compound": "CCOC(=O)C1=C(c2ccccc2)N=C2SCC(=O)N2C1c1cccc(OC)c1", "note": "(stereo unspecified)", "z-score": -0.311}, {"compound": "COC(=O)CCC(NC(=O)c1cc(C)oc1C)C(=O)OC", "note": "(stereo unspecified)", "z-score": -0.261}, {"compound": "C[N+](C)(C)c1ccc(/C=N/Nc2nc(Cl)c(C#N)c(Cl)c2Cl)cc1", "z-score": 0.233}, {"compound": "Cc1cccc2cc(C#N)c(SCCN3CCCCC3)nc12", "z-score": 0.847}, {"compound": "Cn1nnnc1SCC(=O)Nc1ccccn1", "z-score": -0.19}, {"compound": "CCN(CC(=O)Nc1ccccc1OC)C(=O)COc1ccc2ccccc2c1", "z-score": -0.0694}, {"compound": "Cc1ccc(C(=O)NCc2ccc(N3CCN(C(=O)OC(C)(C)C)CC3)cc2)cc1", "z-score": 0.42}, {"compound": "COc1ccc(Nc2ncnc3ccccc23)cc1", "z-score": -0.249}, {"compound": "COc1ccccc1N1CCN(CC(O)COCCOc2ccc(Br)cc2)CC1", "note": "(stereo unspecified)", "z-score": -0.42}, {"compound": "COc1ccccc1N(CC(=O)NC(C)C)S(=O)(=O)c1cccs1", "z-score": 0.0521}, {"compound": "CN(C)S(=O)(=O)N(CC(=O)NCc1ccccc1)c1ccccc1", "z-score": -0.00107}, {"compound": "O=C(NCc1ccccc1)NC1(C(=O)N2CCCC2)CCCCC1", "z-score": 0.429}, {"compound": "CC(=O)SCCC(=O)N1C(C)CCCC1C(=O)O", "note": "(stereo unspecified)", "z-score": -0.3}, {"compound": "COc1ccc(CCNC(=O)c2ccc(-c3ccc([N+](=O)[O-])cc3Cl)o2)cc1OC", "z-score": -0.288}, {"compound": "CCN(c1ccc(C)c(C)c1)S(=O)(=O)c1ccc2c(c1)CCN2C(=O)CCC(=O)O", "z-score": 0.0502}, {"compound": "O=C(O)C1CC=CCC1C(=O)Nc1cccc(F)c1", "note": "(stereo unspecified)", "z-score": -0.623}, {"compound": "CCC(=O)c1cccc2c1N=CC1=C(CC(C)(C)CC1=O)N2", "z-score": 0.228}, {"compound": "Cc1ccc(S(=O)(=O)CCC(=O)NCc2ccccc2Cl)cc1", "z-score": 0.305}, {"compound": "Cc1nnc(SCC(N)=O)n1CCc1ccccc1", "z-score": -0.475}, {"compound": "COC(=O)c1cccc(Cn2nnc3ccccc3c2=O)c1", "z-score": 0.0414}, {"compound": "NC(=O)CSc1c[nH]c2ccccc12", "z-score": 0.122}]}]}
